This is one part of the list. The main result of the screen is listed elsewhere. These columns were measured beside it and carry no call.

As usually defined, the viability is a read-out of living cells in per cent, often relative to untreated cells.

The assay in a line: compounds boosting herpes simplex virus growth – fold increase, host cell viability (AID 1956). Note: tested in PC3 cells. To be noted: HSV replication augmentation in cells; fold increase: measured here: primary screen fold increase 10 uM, at 10 µM, stronger effect = higher value; viability: measured here: host cell viability series, at 25 µM, stronger effect = lower value.
For the compound `Cc1cc(C)nc(NN2C(=O)/C(=C/c3ccc(O)cc3)SC2=S)n1`, the fold increase turned out to be 2.32 and the viability was 90.2%.

For the compound `O=C(C1=C(O)C(=O)N(c2nccs2)C1c1ccccc1)c1cc2ccccc2o1` (stereo unspecified), the fold increase worked out at 2.24 and the viability was 103%.

For `Cc1ccc(Cc2cc(C)n[nH]c2=O)cc1`, the fold increase is 1.55 and the viability was 102%.

On to `COc1cccc(C2=CC(c3cccs3)n3nnnc3N2)c1` (stereo unspecified), for which the fold increase amounted to 3.45 and the viability came to 47.7%.

`CCOc1ccc(Br)cc1C1C(C(=O)OC)=C(N)Oc2cc(N(C)C)ccc21` (stereo unspecified) registered a fold increase of 1.2.

Take `COc1ccccc1-c1nnn(CC#N)n1`: the fold increase was found to be 1.34 and the viability is 96.5%.

On to `CCN(CC)c1ccc(/C=C/C(=O)c2ccc(Br)cc2)cc1`, for which the fold increase stood at 9.24 and the viability worked out at 93.9%.

With `O=C(N/N=C/c1sc(N2CCCCC2)nc1-c1cccs1)c1cccnc1`, the fold increase was 1.58.

In the case of `O=C(COC(=O)CC1CC2CCC1C2)NC(=O)NC1CCCC1` (stereo unspecified), the fold increase was 1.36 and the viability is 104%.

As to `NNC(=O)c1ccc(CSc2nc3ccccc3s2)cc1`, the fold increase came to 1.35 and the viability came out at 101%.

With `C=CCOn1c(=O)c(C)[n+]([O-])c2ccccc21`, the fold increase worked out at 1.66 and the viability is 99.9%.

`CN(C)c1ccc(C(=O)/C=C/c2ccco2)cc1` returned a fold increase of 1.32.

`O=c1c[n+]([O-])c2ccccc2n1OCc1ccccn1`: the fold increase turned out to be 1.22 and the viability stood at 96.8%.

`CC(=O)c1cc(-c2ccccc2)[nH]c1N1CCCC1` gave a fold increase of 1.16.

In the case of `Cc1ccc(-c2nnn(CC(=O)N(CC(=O)NC3CCCCC3)c3cnc4ccccc4c3)n2)o1`, the fold increase is 1.32 and the viability stood at 99.8%.

With `COCCN(C(=O)CN1CCCc2ccccc21)c1c(N)n(Cc2ccccc2)c(=O)[nH]c1=O`, the fold increase is 3.03 and the viability turned out to be 98%.

For `Fc1ccccc1Cc1noc(CN2CCC(OCc3cccnc3)CC2)n1`, the fold increase came to 1.38 and the viability came to 95.4%.

In the case of `COC(=O)c1ccc(-c2ccco2)n1Cc1nc(-c2ccc(OC)c(OC)c2)oc1C`, the fold increase was 1.22.

Compound `CC(=O)Nc1ccc(SCC(=O)c2c(N)n(Cc3ccccc3)c(=O)n(C)c2=O)cc1` came in with a fold increase of 1.32.

The compound `CCCN(CCC)S(=O)(=O)c1ccc(C(=O)OCCN2C(=O)c3cccc4c(N5CCOCC5)ccc(c34)C2=O)cc1` had a fold increase of 4.6.

Regarding `CCN(CC)c1ccc2cc(-c3nc(-c4ccc(OC)cc4)cs3)c(=O)oc2c1`, the fold increase was found to be 8.3 and the viability was 90%.

Take `Cc1n[nH]c(C)c1S(=O)(=O)N1CCCC(C(=O)Nc2nccs2)C1` (stereo unspecified): the fold increase was found to be 1.18.

Consider `CCOC(=O)c1ccccc1N1C(=O)C2Sc3[nH]c(=O)sc3C(/C=C/c3ccccc3)C2C1=O` (stereo unspecified), for which the fold increase is 1.49 and the viability stood at 96.4%.

For the compound `O=C1CCN2C=Nc3cccc4ccc1c2c34`, the fold increase turned out to be 2.9 and the viability came out at 87.9%.

As to `Cc1cc(NC(=O)CN2C(=O)NC(C)(c3ccccc3)C2=O)no1` (stereo unspecified), the fold increase stood at 1.46 and the viability came out at 103%.

In the case of `CN1CCn2c1nc(N1CCCCC1)nc2=O`, the fold increase turned out to be 1.43 and the viability worked out at 96.2%.

`CN1CCN(CCCNC(=O)c2cn(C)c3ccc(S(=O)(=O)N(C)C)cc3c2=O)CC1`: the fold increase is 1.33 and the viability was found to be 94.4%.

Consider `CC(C)N(Cc1nc(-c2ccc3c(c2)OCO3)no1)Cc1nccn1C`, for which the fold increase was determined as 1.39 and the viability worked out at 95.3%.

Consider `O=C(NCCOc1ccccc1F)Nc1ccc(Br)cc1`, for which the fold increase was determined as 1.32.

For `COc1cc(C2C=C(c3cccs3)Nc3ncnn32)cc(OC)c1OC` (stereo unspecified), the fold increase is 9.48 and the viability was 49.2%.

Turning to `NNc1nc2c(F)cccc2s1`, the fold increase was 1.44 and the viability was determined as 90.8%.

Take `CCCCNc1c2c3c(cccc3n(C)c1=O)C(=O)c1ccccc1-2`: the fold increase worked out at 6.3 and the viability is 68.8%.

Turning to `COc1cc(/C=C2\SC(=N)N(c3ccc4c(c3)OCO4)C2=O)cc(OC)c1O`, the fold increase turned out to be 3.12 and the viability came out at 93.6%.

Consider `O=S(=O)(Nc1cc2nc3ccccc3nc2n1Cc1ccccc1)c1ccc(Cl)cc1`, for which the fold increase was found to be 3.35 and the viability is 79.5%.

As for `O=C1/C(=C/c2ccc(O)c(O)c2)Oc2cc(O)ccc21`, the fold increase turned out to be 3.55 and the viability turned out to be 99%.

`Cc1nc2nc(-c3ccccc3)[nH]n2c(=O)c1C`: the fold increase worked out at 1.45 and the viability amounted to 88%.

Turning to `CN(C)c1ccc(N=Cc2nc(-c3ccccc3)oc2O)cc1`, the fold increase was 2.69 and the viability was found to be 91.7%.

In the case of `O=C(/C=C/c1ccco1)N1CCN(S(=O)(=O)c2cccs2)CC1`, the fold increase was determined as 1.32.

On to `COC(=O)c1cc(NC(=O)c2ccccc2)c(=O)oc1/C=C/Nc1ccc(Oc2ccccc2)cc1`, for which the fold increase was determined as 5.74 and the viability was found to be 96.8%.

For the compound `CCOC(=O)c1c(-c2ccc(OC)cc2)csc1/N=C/C1=C(O)CCCC1=O`, the fold increase is 1.59 and the viability was 91.8%.

On to `Nc1cc(=O)[nH]c(SCC(=O)Nc2ccc(S(=O)(=O)N3CCOCC3)cc2)n1`, for which the fold increase came to 1.33 and the viability is 102%.

Regarding `CN1C(=O)CC(c2cn(Cc3ccccc3)c3ccccc23)C1=O` (stereo unspecified), the fold increase worked out at 1.37 and the viability amounted to 89.4%.

In the case of `NC(=O)c1c(NC(=O)C2COc3ccccc3O2)sc2c1CCN(Cc1ccccc1)C2` (stereo unspecified), the fold increase is 1.41 and the viability amounted to 79.9%.

On to `CCN(CC)c1ccc(/C=c2\sc3nc4ccccc4n3c2=O)c(O)c1`, for which the fold increase was found to be 1.63 and the viability came to 70.2%.

`COc1ccc(C2=CC(c3cccc(OC)c3)n3nnnc3N2)cc1` (stereo unspecified) gave a fold increase of 1.88.

On to `COc1ccccc1NC(=O)c1cc2ccc(O)cc2o/c1=N\O`, for which the fold increase is 1.39 and the viability turned out to be 79%.

Take `CCSC1=N/C(=C\C=C2/Oc3ccccc3N2CC)C(=O)S1`: the fold increase turned out to be 2.1 and the viability was found to be 98%.

Take `Cc1nc(SCC(=O)O)c(C#N)c2c1CCCC2`: the fold increase was found to be 1.35 and the viability was 98.8%.

With `CCN(CC)S(=O)(=O)c1ccc(N=Nc2c(C)[nH]n(C(N)=S)c2=O)cc1`, the fold increase was 1.41.
